Data: PubChem BioAssay AID1159614 (National Center for Advancing Translational Sciences (NCATS), 2016)
The campaign covered roughly 45,000 compounds. About 65 (0.1%) were called active. Calls follow the shape of the dose curve; as a rule, active = well fitted activation curve with a large enough effect; inconclusive = small, poorly fitted or top-dose-only effect; inactive = no such curve, though single readings can be large or run the other way. Some of the results follow.

target: Galactocerebrosidase (Homo sapiens) (UniProt P54803); test: A Novel Cell-Based Assay to Identify Small Molecules for B -Galactocerebrosidase; details: 145M-Twi-hGALC-G270D cells (Twitcher mouse brain line with human GALC G270D), HMU-beta-Gal fluorescence, 48 h; series mostly up to 57.5 µM; activation: at the top concentration; also: 0% is about no effect; nearly all actives have a fitted effect of over 65% in size
Sequence of UniProt P54803 (P54803 whole entry, looked up): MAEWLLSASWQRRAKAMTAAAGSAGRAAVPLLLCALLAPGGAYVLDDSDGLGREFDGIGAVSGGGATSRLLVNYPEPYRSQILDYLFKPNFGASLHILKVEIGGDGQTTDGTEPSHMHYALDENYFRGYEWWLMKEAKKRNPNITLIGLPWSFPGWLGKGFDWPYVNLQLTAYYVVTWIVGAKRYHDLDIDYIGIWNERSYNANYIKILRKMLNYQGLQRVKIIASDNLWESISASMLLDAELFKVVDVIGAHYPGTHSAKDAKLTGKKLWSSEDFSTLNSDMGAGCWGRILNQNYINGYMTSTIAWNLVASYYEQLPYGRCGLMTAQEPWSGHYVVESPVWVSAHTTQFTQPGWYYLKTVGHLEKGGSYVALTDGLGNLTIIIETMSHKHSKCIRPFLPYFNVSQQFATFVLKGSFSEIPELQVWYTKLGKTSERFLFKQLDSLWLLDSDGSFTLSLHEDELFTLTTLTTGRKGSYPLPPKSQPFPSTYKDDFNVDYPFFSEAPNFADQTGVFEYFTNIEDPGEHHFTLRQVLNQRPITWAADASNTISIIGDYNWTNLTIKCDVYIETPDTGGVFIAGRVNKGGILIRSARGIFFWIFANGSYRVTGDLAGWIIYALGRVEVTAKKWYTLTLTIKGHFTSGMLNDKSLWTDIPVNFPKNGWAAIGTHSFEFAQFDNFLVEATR
How it was run: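 Fluorescence readout: HMU-β-gal cleavage by mutant GALC (0.1 mM final, citrate/phosphate pH 5.2 with 1 mg/mL taurocholate), stopped with carbonate/bicarbonate plus Triton X-100. Cells: murine Twitcher 145M-Twi expressing human G270D GALC; qHTS for activators.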

activation, inactive:
COc1ccccc1C(=O)NCCn1cc(SCC(=O)Nc2ccccc2F)c2ccccc21 4.38%
COc1ccc(CCNC(=O)C(=O)Nc2ccccc2F)cc1 -5.94%
Cc1ccc(CNC(=O)C(=O)Nc2c3c(nn2-c2ccccc2)CSC3)cc1 -2.5%
Cc1ccc(C)c(N2CCN(S(=O)(=O)c3ccc4[nH]c5c(c4c3)CCCCC5)CC2)c1 -40.5%
CC(C)Cn1cc(NC(=O)N2CCN(c3cccc(Cl)c3)CC2)c2ccccc2c1=O -22.2%
O=C(NCc1ccccc1)c1ccc(CNS(=O)(=O)c2ccc(Br)cc2)cc1 -14.6%
COc1ccccc1CNS(=O)(=O)c1ccc2c(c1)CC(C)N2C(C)=O (configuration not stated) -4.62%
CC1CCN(S(=O)(=O)c2ccc3c(c2)N(CC(=O)NC(C)c2ccccc2)C(=O)CS3)CC1 (configuration not stated) -0.507%
O=C(O)c1cc(=O)c2ccccc2o1 -14.6%
Cc1cc(C)c(NC(=O)c2cc(S(=O)(=O)N3CCC4(CC3)OCCO4)ccc2F)c(C)c1 -7.84%
Cc1ccc(-c2nc(NC(=O)CSc3cc(C)c4ccccc4n3)ns2)cc1 -10.8%
COc1cc(Cl)c(S(=O)(=O)NCCc2c(C)[nH]c3c(C)cccc23)cc1Cl -7.74%
CCc1ccc(NC(=O)N2CCOc3ccc(Cl)cc32)cc1 -7.8%
O=C(Nc1cc(-c2nc3cc(Cl)ccc3o2)ccc1Cl)c1ccco1 -11.4%
CC1CCCN(C(=O)CSc2c3c(nc4cc(Cl)ccc24)CCCC3)C1 (configuration not stated) -1.13%
COc1cccc(C2C(C(=O)Nc3ccc(C)cc3C)=C(C)Nc3c(C(=O)Nc4ccccc4)cnn32)c1 (configuration not stated) -4.64%
O=C(Nc1nnc(S(=O)(=O)N2CCCc3ccccc32)s1)c1cccc(Cl)c1 -2.85%
CCc1ccc(NC(=O)CSc2nc(=O)n(Cc3ccccn3)c3c2CCC3)cc1 1.28%
CCN(CCCNC(=O)Cn1ncc2c3ccccc3n(C)c2c1=O)Cc1ccccc1 1.92%
CCCSc1ncc(Cl)c(C(=O)Nc2ccc(S(=O)(=O)N(C)c3ccccc3)cc2)n1 -12.4%
COC(=O)c1ccc(C2c3c(-c4ccccc4O)n[nH]c3C(=O)N2Cc2cccnc2)cc1 (configuration not stated) -31.4%
COc1ccc(S(=O)(=O)N2CCC(C(=O)Nc3ccc(Oc4ccccc4)cc3)CC2)cc1 -24.9%
Oc1ccc(Cl)cc1Cc1cc(Cl)ccc1O -5.63%
CCc1cccc(C)c1NS(=O)(=O)c1c(C(=O)N2CCC(C)CC2)c(C)n(C)c1C -8.36%
COc1ccc(NC(=O)c2cc(S(=O)(=O)N3CCOCC3)ccc2OC)cc1 -8.65%
NS(=O)(=O)c1cc(C(=O)O)c(NCc2ccco2)cc1Cl -11.7%
Cc1nnc(N2CCC(C(=O)NC3CCCCC3)CC2)c2nn(-c3ccccc3)c(C)c12 -7.62%
